Our source for the enrichment score values is the supplement of paper PMC10369915.

This is one part of the list. Cut-off read from the data, not from the text of the source: active = 3.2 or more and inactive = the rest. Only a few entries rise above the background.
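Note: displayed peptides selected on beads carrying the immobilized SH2 domain, with library peptides lacking any tyrosine serving as negative controls.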

One experiment addresses SHP2 C-SH2 domain E139D. In words: enrichment score (SH2-bound / input frequency) (ratio); bacterial display of known human phosphotyrosine sites (pTyr-Var adds point mutants) read by sequencing; higher = stronger binding; tyrosines were phosphorylated by kinases first. Conditions: peptide library: pTyr-Var.
As for ESDFTYSSSFE [SRPK2_Y427_YF], the enrichment score is inactive: 0.549.
On to SEKISYVFMKR [SSX7_Y48_L43S_YF], for which the enrichment score was inactive: 0.481.
CQAHGYFCQLI [STK11_Y156]: the enrichment score was inactive: 2.05.
Regarding MNKNAYHNVTA [ST3GAL6_Y306], the enrichment score was inactive: 0.674.
In the case of HLQDEYDFKCK [STAT1_Y170_D165H], the enrichment score was inactive: 1.58.
DKITQYVEEVR [STX2_Y49_K54R]: the enrichment score was inactive: 0.972.
For STKPQYQPGEN [SRC_Y530_E527K], the enrichment score was inactive: 0.616.
On the same count and under the same terms, then IDGLEYLHSPG [STK11_Y166_Q170P], with inactive: 0.732; and LFCLHYFHRTF [SRD5A2_Y91_V89L], with active: 3.47; and RIFDFYSARKA [STOX1_Y858_YF], with inactive: 1.2.
As for STEVIYQPRRK [STK11_Y36], the enrichment score is inactive: 0.2.
For VPDTNYTSDEE [STK33_Y439_A437T], the enrichment score was inactive: 0.495.
For the molecule STEPQYQPGEN [SRC_Y530], the enrichment score is inactive: 0.323.
Same read-out and setting: then TWNPKYTLRSH [STRN3_Y474], with inactive: 1.1.
Same read-out and setting: with LRFDVYGGENE [STOX1_Y610_E608D_YF] the figure was inactive: 1.2.
The same measure, in the same setting: with IEELTYVIKQD [STX5_Y137_I138V] the figure was inactive: 0.849.
On to VPEANYTSDEE [STK33_Y439_D436E], for which the enrichment score is inactive: 0.716.
Take LRYEVYGGENE [STOX1_Y610]: the enrichment score was inactive: 1.16.

The target of another experiment is SHP2 C-SH2 domain wild-type. The description is as above. Conditions: peptide library: pTyr-Var.
In the case of ESDFTYSSSFE [SRPK2_Y427_YF], the enrichment score is inactive: 0.711.
The same measure, in the same setting: then SEKISYVFMKR [SSX7_Y48_L43S_YF], with inactive: 0.666; and CQAHGYFCQLI [STK11_Y156], with inactive: 2.03; and MNKNAYHNVTA [ST3GAL6_Y306], with inactive: 0.531.
As for HLQDEYDFKCK [STAT1_Y170_D165H], the enrichment score was inactive: 1.12.
On the same count and under the same terms, with DKITQYVEEVR [STX2_Y49_K54R] the figure was inactive: 0.908; with STKPQYQPGEN [SRC_Y530_E527K], inactive: 0.513.
IDGLEYLHSPG [STK11_Y166_Q170P]: the enrichment score is inactive: 0.647.
As to LFCLHYFHRTF [SRD5A2_Y91_V89L], the enrichment score is active: 4.26.
With RIFDFYSARKA [STOX1_Y858_YF], the enrichment score is inactive: 0.68.
Still for that read-out and setting: then STEVIYQPRRK [STK11_Y36], with inactive: 0.246; and VPDTNYTSDEE [STK33_Y439_A437T], with inactive: 0.497.
For the molecule STEPQYQPGEN [SRC_Y530], the enrichment score was inactive: 0.391.
With TWNPKYTLRSH [STRN3_Y474], the enrichment score is inactive: 0.993.
For LRFDVYGGENE [STOX1_Y610_E608D_YF], the enrichment score was inactive: 1.13.
On to IEELTYVIKQD [STX5_Y137_I138V], for which the enrichment score is inactive: 0.754.
Turning to VPEANYTSDEE [STK33_Y439_D436E], the enrichment score was inactive: 0.819.
As to LRYEVYGGENE [STOX1_Y610], the enrichment score is inactive: 0.973.

The target of a further experiment is SHP2 N-SH2 domain L43F. Described as above. The conditions noted are these: peptide library: pTyr-Var.
Consider ESDFTYSSSFE [SRPK2_Y427_YF], for which the enrichment score was inactive: 0.712.
For the molecule SEKISYVFMKR [SSX7_Y48_L43S_YF], the enrichment score is inactive: 0.619.
Still for that read-out and setting: with CQAHGYFCQLI [STK11_Y156] the figure was inactive: 2.19.
Consider MNKNAYHNVTA [ST3GAL6_Y306], for which the enrichment score is inactive: 0.66.
On the same count and under the same terms, then HLQDEYDFKCK [STAT1_Y170_D165H], with inactive: 1.35.
The same measure, in the same setting: with DKITQYVEEVR [STX2_Y49_K54R] the figure was inactive: 0.99; with STKPQYQPGEN [SRC_Y530_E527K], inactive: 0.561.
The same measure, in the same setting: with IDGLEYLHSPG [STK11_Y166_Q170P] the figure was inactive: 0.79; with LFCLHYFHRTF [SRD5A2_Y91_V89L], active: 3.85; with RIFDFYSARKA [STOX1_Y858_YF], inactive: 0.947.
Take STEVIYQPRRK [STK11_Y36]: the enrichment score is inactive: 0.232.
Still for that read-out and setting: then VPDTNYTSDEE [STK33_Y439_A437T], with inactive: 0.415; and STEPQYQPGEN [SRC_Y530], with inactive: 0.301.
As for TWNPKYTLRSH [STRN3_Y474], the enrichment score was inactive: 0.974.
In the case of LRFDVYGGENE [STOX1_Y610_E608D_YF], the enrichment score was inactive: 1.17.
Same read-out and setting: with IEELTYVIKQD [STX5_Y137_I138V] the figure was inactive: 0.726; with VPEANYTSDEE [STK33_Y439_D436E], inactive: 0.661; with LRYEVYGGENE [STOX1_Y610], inactive: 1.05.

The next experiment deals with SHP2 N-SH2 domain T42A. The description is as above. Conditions: peptide library: pTyr-Var.
ESDFTYSSSFE [SRPK2_Y427_YF]: the enrichment score was inactive: 0.545.
On to SEKISYVFMKR [SSX7_Y48_L43S_YF], for which the enrichment score is inactive: 0.659.
Still for that read-out and setting: with CQAHGYFCQLI [STK11_Y156] the figure was inactive: 1.86; with MNKNAYHNVTA [ST3GAL6_Y306], inactive: 0.51.
Still for that read-out and setting: with HLQDEYDFKCK [STAT1_Y170_D165H] the figure was inactive: 0.738; with DKITQYVEEVR [STX2_Y49_K54R], inactive: 0.646.
The same measure, in the same setting: with STKPQYQPGEN [SRC_Y530_E527K] the figure was inactive: 0.58; with IDGLEYLHSPG [STK11_Y166_Q170P], inactive: 0.61; with LFCLHYFHRTF [SRD5A2_Y91_V89L], inactive: 2.58.
Turning to RIFDFYSARKA [STOX1_Y858_YF], the enrichment score is inactive: 1.01.
On the same count and under the same terms, with STEVIYQPRRK [STK11_Y36] the figure was inactive: 0.23; with VPDTNYTSDEE [STK33_Y439_A437T], inactive: 0.471; with STEPQYQPGEN [SRC_Y530], inactive: 0.323.
Same read-out and setting: with TWNPKYTLRSH [STRN3_Y474] the figure was inactive: 0.971; with LRFDVYGGENE [STOX1_Y610_E608D_YF], inactive: 1.17; with IEELTYVIKQD [STX5_Y137_I138V], inactive: 0.675.
On the same count and under the same terms, with VPEANYTSDEE [STK33_Y439_D436E] the figure was inactive: 0.684.
LRYEVYGGENE [STOX1_Y610]: the enrichment score was inactive: 1.04.

For another experiment, the target named is SHP2 N-SH2 domain T52S. The description is as above. The conditions noted are these: peptide library: pTyr-Var.
With ESDFTYSSSFE [SRPK2_Y427_YF], the enrichment score was inactive: 0.715.
With SEKISYVFMKR [SSX7_Y48_L43S_YF], the enrichment score is inactive: 0.579.
With CQAHGYFCQLI [STK11_Y156], the enrichment score is inactive: 2.01.
MNKNAYHNVTA [ST3GAL6_Y306]: the enrichment score was inactive: 0.576.
Same read-out and setting: with HLQDEYDFKCK [STAT1_Y170_D165H] the figure was inactive: 1.08; with DKITQYVEEVR [STX2_Y49_K54R], inactive: 0.855.
With STKPQYQPGEN [SRC_Y530_E527K], the enrichment score was inactive: 0.582.
In the case of IDGLEYLHSPG [STK11_Y166_Q170P], the enrichment score was inactive: 0.676.
On the same count and under the same terms, then LFCLHYFHRTF [SRD5A2_Y91_V89L], with inactive: 2.99; and RIFDFYSARKA [STOX1_Y858_YF], with inactive: 0.986.
In the case of STEVIYQPRRK [STK11_Y36], the enrichment score is inactive: 0.151.
For the molecule VPDTNYTSDEE [STK33_Y439_A437T], the enrichment score is inactive: 0.571.
On the same count and under the same terms, with STEPQYQPGEN [SRC_Y530] the figure was inactive: 0.332; with TWNPKYTLRSH [STRN3_Y474], inactive: 0.974.
LRFDVYGGENE [STOX1_Y610_E608D_YF]: the enrichment score is inactive: 1.15.
As for IEELTYVIKQD [STX5_Y137_I138V], the enrichment score was inactive: 0.85.
The same measure, in the same setting: then VPEANYTSDEE [STK33_Y439_D436E], with inactive: 0.753.
Same read-out and setting: with LRYEVYGGENE [STOX1_Y610] the figure was inactive: 1.06.

Another experiment deals with SHP2 N-SH2 domain wild-type. The experiment is described as above. The conditions noted are these: peptide library: pTyr-Var.
Take ESDFTYSSSFE [SRPK2_Y427_YF]: the enrichment score was inactive: 0.541.
On the same count and under the same terms, with SEKISYVFMKR [SSX7_Y48_L43S_YF] the figure was inactive: 0.543; with CQAHGYFCQLI [STK11_Y156], inactive: 1.69; with MNKNAYHNVTA [ST3GAL6_Y306], inactive: 0.765.
Same read-out and setting: then HLQDEYDFKCK [STAT1_Y170_D165H], with inactive: 1.64; and DKITQYVEEVR [STX2_Y49_K54R], with inactive: 0.854; and STKPQYQPGEN [SRC_Y530_E527K], with inactive: 0.535.
Still for that read-out and setting: then IDGLEYLHSPG [STK11_Y166_Q170P], with inactive: 0.823.
Turning to LFCLHYFHRTF [SRD5A2_Y91_V89L], the enrichment score was active: 4.07.
Same read-out and setting: with RIFDFYSARKA [STOX1_Y858_YF] the figure was inactive: 0.873.
Still for that read-out and setting: with STEVIYQPRRK [STK11_Y36] the figure was inactive: 0.353.
Consider VPDTNYTSDEE [STK33_Y439_A437T], for which the enrichment score was inactive: 0.725.
The same measure, in the same setting: then STEPQYQPGEN [SRC_Y530], with inactive: 0.428; and TWNPKYTLRSH [STRN3_Y474], with inactive: 0.904.
On the same count and under the same terms, with LRFDVYGGENE [STOX1_Y610_E608D_YF] the figure was inactive: 0.932.
Regarding IEELTYVIKQD [STX5_Y137_I138V], the enrichment score is inactive: 0.841.
For the molecule VPEANYTSDEE [STK33_Y439_D436E], the enrichment score was inactive: 0.972.
On the same count and under the same terms, with LRYEVYGGENE [STOX1_Y610] the figure was inactive: 1.18.
